Measurements: the supplement of paper PMC8728848
This is one part of the list.

What was measured:
Assay in all cases: glycan array binding signal (z-score within array); higher = stronger binding
Conditions in all cases: glycan notation: IUPAC condensed, linker removed
[1] = target: Gal(b1-3)GlcNAc(b1-2)Man(a1-3)[Gal(b1-3)GlcNAc(b1-2)Man(a1-6)]Man(b1-4)GlcNAc(b1-4)GlcNAc
Outline: (§1)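 Glycan array binding is given as a within-array Z-score, which can be read as non-binding when negative. The arrays, 3228 of them, came from the Consortium for Functional Glycomics database and were retained only where the protein sequence was available. Z-scores were averaged across arrays of the same protein sequence at different concentrations or buffers and across linkers.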

[2] = target: Gal(b1-3)GlcNAc(b1-2)Man(a1-3)[Gal(b1-3)GlcNAc(b1-2)Man(a1-6)]Man(b1-4)GlcNAc(b1-4)[Fuc(a1-6)]GlcNAc
Outline: as §1

[3] = target: Gal(b1-3)GlcNAc(b1-2)Man(a1-3)[GlcNAc(b1-4)][Gal(b1-3)GlcNAc(b1-2)Man(a1-6)]Man(b1-4)GlcNAc(b1-4)GlcNAc
Outline: as §1

[4] = target: Gal(b1-3)GlcNAc(b1-2)[Gal(b1-3)GlcNAc(b1-6)]Man(a1-6)[Gal(b1-3)GlcNAc(b1-2)Man(a1-3)]Man(b1-4)GlcNAc(b1-4)GlcNAc
Outline: as §1

[5] = target: Gal(b1-3)GlcNAc(b1-3)Gal(b1-3)GlcNAc
Outline: as §1

[6] = target: Gal(b1-3)GlcNAc(b1-3)Gal(b1-4)Glc
Outline: as §1

[7] = target: Gal(b1-3)GlcNAc(b1-3)Gal(b1-4)GlcNAc
Outline: as §1

[8] = target: Gal(b1-3)GlcNAc(b1-3)Gal(b1-4)GlcNAc(b1-2)Man(a1-3)[Gal(b1-3)GlcNAc(b1-3)Gal(b1-4)GlcNAc(b1-2)Man(a1-6)]Man(b1-4)GlcNAc(b1-4)GlcNAc
Outline: as §1

[9] = target: Gal(b1-3)GlcNAc(b1-3)Gal(b1-4)GlcNAc(b1-2)[Gal(b1-3)GlcNAc(b1-3)Gal(b1-4)GlcNAc(b1-6)]Man(a1-6)[Gal(b1-3)GlcNAc(b1-3)Gal(b1-4)GlcNAc(b1-2)Man(a1-3)]Man(b1-4)GlcNAc(b1-4)[Fuc(a1-6)]GlcNAc
Outline: as §1

[10] = target: Gal(b1-3)GlcNAc(b1-3)Gal(b1-4)GlcNAc(b1-3)Gal(b1-4)GlcNAc(b1-2)[Gal(b1-3)GlcNAc(b1-3)Gal(b1-4)GlcNAc(b1-3)Gal(b1-4)GlcNAc(b1-6)]Man(a1-6)[Gal(b1-3)GlcNAc(b1-3)Gal(b1-4)GlcNAc(b1-3)Gal(b1-4)GlcNAc(b1-2)Man(a1-3)]Man(b1-4)GlcNAc(b1-4)[Fuc(a1-6)]GlcNAc
Outline: as §1

[11] = target: Gal(b1-3)GlcNAc(b1-3)Gal(b1-4)GlcNAc(b1-6)[Gal(b1-3)GlcNAc(b1-3)]Gal(b1-4)Glc
Outline: as §1

[12] = target: Gal(b1-3)GlcNAc(b1-3)Gal(b1-4)[Fuc(a1-3)]GlcNAc
Outline: as §1

[13] = target: Gal(b1-3)GlcNAc(b1-3)Gal(b1-4)[Fuc(a1-3)]GlcNAc(b1-6)[Gal(b1-3)GlcNAc(b1-3)]Gal(b1-4)Glc
Outline: as §1

[14] = target: Gal(b1-3)GlcNAc(b1-3)GalNAc
Outline: as §1

[15] = target: Gal(b1-3)GlcNAc(b1-6)Gal(b1-4)GlcNAc
Outline: as §1

[16] = target: Gal(b1-3)GlcNAc(b1-6)GalNAc
Outline: as §1

[17] = target: Gal(b1-3)GlcNAc(b1-6)[Gal(b1-3)]GalNAc
Outline: as §1

Gal(b1-3)GlcNAc6S = target: Gal(b1-3)GlcNAc6S
Outline: as §1

[18] = target: Gal(b1-3)[Fuc(a1-4)]GlcNAc
Outline: as §1

[19] = target: Gal(b1-3)[Fuc(a1-4)]GlcNAc(b1-2)Man
Outline: as §1

[20] = target: Gal(b1-3)[Fuc(a1-4)]GlcNAc(b1-2)Man(a1-3)[Gal(b1-3)[Fuc(a1-4)]GlcNAc(b1-2)Man(a1-6)]Man(b1-4)GlcNAc(b1-4)[Fuc(a1-6)]GlcNAc
Outline: as §1

[21] = target: Gal(b1-3)[Fuc(a1-4)]GlcNAc(b1-3)Gal(b1-3)[Fuc(a1-4)]GlcNAc
Outline: as §1

[22] = target: Gal(b1-3)[Fuc(a1-4)]GlcNAc(b1-3)Gal(b1-4)[Fuc(a1-3)]GlcNAc
Outline: as §1

[23] = target: Gal(b1-3)[Fuc(a1-4)]GlcNAc(b1-6)GalNAc
Outline: as §1

[24] = target: Gal(b1-3)[GlcNAc(b1-6)]GalNAc
Outline: as §1

[25] = target: Gal(b1-3)[Neu5Ac(a2-6)]GalNAc
Outline: as §1

[26] = target: Gal(b1-3)[Neu5Ac(a2-6)]GlcNAc(b1-4)Gal(b1-4)Glc
Outline: as §1

[27] = target: Gal(b1-3)[Neu5Ac(b2-6)]GalNAc
Outline: as §1

Gal(b1-4)Gal = target: Gal(b1-4)Gal
Outline: as §1

[28] = target: Gal(b1-4)GalNAc(a1-3)[Fuc(a1-2)]Gal(b1-4)GlcNAc
Outline: as §1

[29] = target: Gal(b1-4)GalNAc(b1-3)[Fuc(a1-2)]Gal(b1-4)GlcNAc
Outline: as §1

Gal(b1-4)Glc = target: Gal(b1-4)Glc
Outline: as §1

Gal(b1-4)Glc6S = target: Gal(b1-4)Glc6S
Outline: as §1

Gal(b1-4)GlcNAc = target: Gal(b1-4)GlcNAc
Outline: as §1

[30] = target: Gal(b1-4)GlcNAc(a1-6)Gal(b1-4)GlcNAc
Outline: as §1

Gal(b1-4)GlcNAc(b1-2)Man = target: Gal(b1-4)GlcNAc(b1-2)Man
Outline: as §1

[31] = target: Gal(b1-4)GlcNAc(b1-2)Man(a1-3)Man(b1-4)GlcNAc(b1-4)GlcNAc
Outline: as §1

B1: MGL2 (Mus musculus), Q8JZN1 (protein)
chain: MTMRYENFQNLEREEKNQEMRNGDKKGGMESPKFALIPSQSFLWRILSWTHLLLFSLGLSLLLLVVISVIGSQNSQLRRDLGTLRAILDNTTSKIKAEFQSLDSRADNFEKGISSLKVDVEDHRQELQAGRDLSQKVTSLESTLEKREQALKTDLSDLTDHVQQLETDLKALTCQLANLKNNGSEVACCPLHWTEHEGSCYWFSESEKSWPEADKYCRLENSHLVVVNSLEEQNFLQNRLANVLSWMGLTDQNGPWRWVDGTDFDKGFKNWRPLQPDNWHGHMLGGGEDCAHFSYDGRWNDDVCQRHYHWICETELGKASSAHSPQLIASVP
glycan array binding signal (z-score) [1]: -0.128
glycan array binding signal (z-score) [2]: -0.125
glycan array binding signal (z-score) [3]: 0.562
glycan array binding signal (z-score) [4]: -0.066
glycan array binding signal (z-score) [5]: -0.173
glycan array binding signal (z-score) [6]: -0.207
glycan array binding signal (z-score) [7]: -0.154
glycan array binding signal (z-score) [8]: -0.097
glycan array binding signal (z-score) [9]: -0.159
glycan array binding signal (z-score) [10]: -0.035
glycan array binding signal (z-score) [11]: -0.184
glycan array binding signal (z-score) [12]: -0.213
glycan array binding signal (z-score) [13]: -0.138
glycan array binding signal (z-score) [14]: -0.286
glycan array binding signal (z-score) [15]: -0.035
glycan array binding signal (z-score) [16]: 2.02
glycan array binding signal (z-score) [17]: -0.049
glycan array binding signal (z-score) (Gal(b1-3)GlcNAc6S): -0.194
glycan array binding signal (z-score) [18]: -0.136
glycan array binding signal (z-score) [19]: -0.142
glycan array binding signal (z-score) [20]: -0.223
glycan array binding signal (z-score) [21]: -0.257
glycan array binding signal (z-score) [22]: -0.068
glycan array binding signal (z-score) [23]: -0.154
glycan array binding signal (z-score) [24]: -0.061
glycan array binding signal (z-score) [25]: -0.212
glycan array binding signal (z-score) [26]: -0.266
glycan array binding signal (z-score) [27]: -0.205
glycan array binding signal (z-score) (Gal(b1-4)Gal): -0.267
glycan array binding signal (z-score) [28]: -0.177
glycan array binding signal (z-score) [29]: -0.236
glycan array binding signal (z-score) (Gal(b1-4)Glc): -0.184
glycan array binding signal (z-score) (Gal(b1-4)Glc6S): -0.225
glycan array binding signal (z-score) (Gal(b1-4)GlcNAc): -0.209
glycan array binding signal (z-score) [30]: -0.091
glycan array binding signal (z-score) (Gal(b1-4)GlcNAc(b1-2)Man): -0.317
glycan array binding signal (z-score) [31]: -0.195
